± gives the standard deviation of the averaged measurements. This is one part of the list.
Tested on: PfAP2-EXP AP2 domain (GST-tagged)
Experiment: gcPBM binding intensity (ln(normalized median fluorescence intensity)); higher = stronger DNA binding
How it was run: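 Plasmodium falciparum DNA-binding domains carrying a GST tag were expressed in E. coli and applied for 1 h, at about 25 μg on average, to an Agilent 4 × 180k array. The array held primer-extended double-stranded 36-bp intergenic genomic probes together with negative controls, and binding took place in 1× PBS with 1% milk, 0.2 mg/ml BSA, 0.5% salmon testes DNA and 0.03% Triton X-100. An Alexa488 anti-GST antibody detected bound protein, and the array was scanned at 488 nm. Binding intensity is taken as the highest Masliner-normalised natural-log median intensity across replicate spots of either probe orientation.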

Sequence | gcPBM binding intensity (ln)
AAAATTTCAATAAATACACACATATAAATATAGATT [CACACA_site6893] | 8.32 ± 0.38
ATATATTTTTATATAGTGCAAGTAATAAAAAGGAAT | 9.06 ± 0.29
GGAAAAAAATAAAATAAGTATTTTACATACATATTG [TGCATGCA_negctrl_site10] | 8.13 ± 0.37
AAAACTTTTTTAACAGAAAAATAGGGATACAATATA [CACACA_negctrl_site1708] | 8.84 ± 0.66
ATATCATTTTATTTGTGTACTTAAAAAGTTGCAATG [XGTACX_site4099] | 8.6 ± 0.28
ATAACATTCAAAAAATGTACAAACATATGAATAAAT [XGTACX_site7013] | 8.62 ± 0.47
GGAATAACCAGACACACACACACATATAAATATGTA [CACACA_site7632] | 8.51 ± 0.49
TAAATACAAGAACTGACACACATACATACTACATTT [CACACA_site5561] | 8.62 ± 0.49
GAACATTACGTAAATAAATAAATAAAAATAAATACA [XGTACX_negctrl_site25] | 8.71 ± 0.57
AAAAAACTTCACATATGTACTTAAAAAAAATTAAAA [XGTACX_site2368] | 8.38 ± 0.38
ATAAAGTCTATATTATGTACATATAATATAAATATT [XGTACX_site6703] | 8.38 ± 0.31
CAAAAAAAAATCTGTAGTACTTATTAATATTGCTGT [XGTACX_site4767] | 8.38 ± 0.26
TATTGTCTTGTATATGCATGTAGACCAAATATGTAA [TGCATGCA_site9] | 8.72 ± 0.33
AAATCAAATTTTTAGAGTACTTAAGTTTTCTATATA [XGTACX_site7827] | 8.27 ± 0.57
ATCACAAAAAAGTTCATACACACAACCTATTTATAT [CACACA_site2888] | 8.52 ± 0.36
TAATATATTAATATATGTACATATTTATATATCTAC [XGTACX_site7117] | 8.44 ± 0.28
TCCCCATATGTTTTGTGTACATATATATTTTTTTGT [XGTACX_site75] | 8.95 ± 0.38
TCATATAAGTTTAGTAGTACTAAAAGTTAGAGAGAA [XGTACX_site3430] | 8.73 ± 0.33
AAATAAGAGCGTAGCACACACGCATTTTATAAATGG [CACACA_site4571] | 8.68 ± 0.37

Sequence | gcPBM binding intensity (ln)
AAAACAAAAGAATTCACACATATATATATATATATA [CACACA_site4777] | 10.1 ± 0.36
ATATATGGAAAGAGTAGTACTATTATAGGGGTGTTA [XGTACX_site6785] | 8.95 ± 0.64
TGATTATTATAATTTAGTACATAATATTTTATATAA [XGTACX_site6125] | 7.96 ± 0.33
CAAGGAACCAGACACACACACATAAATGTATATATA [CACACA_site752] | 8.53 ± 0.49
AAAATTAACGAGTGCACACATATTTAGATAAAATAC [CACACA_site2936] | 8.8 ± 0.21
TTAAACGTACATAATACACACACATGTAGACATATA [CACACA_site8635] | 8.66 ± 0.33
AAAATTAAACATACATCACACATGCATTATATTATG [CACACA_site5517] | 8.65 ± 0.51
ATACTTTATTAATATTGTACAAAATAAGAAAAAAAA [XGTACX_site310] | 8.54 ± 0.38
ACATAAAAATTATGCACACTTAATAAAGCGAAATGT [CACACA_site3183] | 8.78 ± 0.4
CACAACAGGGTTGAGGTGCGTAAAAATAGTAGAATA [GTGCAC_site9523] | 8.62 ± 0.35
TATATATATATGTGTACACAAAAAATATTATATTAT [CACACA_site5505] | 9.9 ± 0.16
TTTTTAATCCTTTGCGCATGTAAAATTATATATTTT [TGCATGCA_site306] | 9.01 ± 0.39
ACATAATTATTATGCACACATATTTTTATGTATTTA [CACACA_site698] | 8.52 ± 0.085
ATTCTATTTTTAAGTACACACATATATATATATATA [CACACA_site3658] | 10.2 ± 0.42
AAACTAACTCTAACATGTACATATATATATATATAT [XGTACX_site6949] | 10.1 ± 0.29
TAATGGTGTTCATGTGGTACACTTTATAAATTGGCA [XGTACX_site729] | 8.55 ± 0.3
TTGAAAATTCTTAAGGCACACACATATATAATATAT [CACACA_site8088] | 8.6 ± 0.24
GCTTATTTTAATTCTTGTACTTATTTATATACAAAT [XGTACX_site2099] | 8.91 ± 0.23
TTTTGAAGTAATACATGTACTTAAATTACTAAAAAA [XGTACX_site1955] | 8.39 ± 0.4

Sequence | gcPBM binding intensity (ln)
ACTTTGCGTTAAAAGAGTACATAATATTTTTTTTTT [XGTACX_site7533] | 8.34 ± 0.092
TATATATATAACATATGTACATATATTTATAAATAC [XGTACX_site5484] | 8.885 ± 0.078
AATAATTTAATACATACACACGTATATCTTTTTTTT [CACACA_site8632] | 8.46 ± 0.39
TATATAAATATACACCCACACACATATATATATATA [CACACA_site9247] | 10.2 ± 0.26
TATAAAAAAAAATGTGGTACATATTTCCATTTTCCA [XGTACX_site4571] | 8.11 ± 0.23
TATATTCCACTCATTGATTTTCTCTTCTCACAAAAA [CACACA_negctrl_site1016] | 8.66 ± 0.49
ATCGTAGTATAATATGAACACACACCCACCCACAAA [CACACA_site8616] | 9.46 ± 0.67
TCTTCTTAACCAACTATGAAAAGGAAAAATATAACA [GTGCAC_negctrl_site565] | 8.49 ± 0.46
GAAACTATGTAATGCACACCAAAATAAAATTATTAA [CACACA_site1904] | 8.53 ± 0.31
CATGAATTTTTTTAATGTACATTCACATCATAAAAA [XGTACX_site7475] | 8.69 ± 0.29
ATATATTATATATATAGTACGTATATAAATTTAATT [XGTACX_site5041] | 8.53 ± 0.18
TAAATCCGCACGCACACACACATATTAATAAAAAAA [CACACA_site7800] | 8.61 ± 0.36
TTATTTTTATTATAAATTATAAAATATAAATAAATA [GTGCAC_negctrl_site616] | 7.83 ± 0.42
ATTATAAAAAAGAAACGTACATATTTATTGTTTTTT [XGTACX_site2161] | 8.26 ± 0.26
TATAATAATACTTATTGTACTATTAGTTTAATTCAT [XGTACX_site6638] | 8.15 ± 0.39
ATCTTTCAATAATTCACACATATATATATATATATA [CACACA_site4598] | 10.2 ± 0.28
ATATATATATATGTACACATATATGTGTTTGTTTTT [GTGCAC_negctrl_site5] | 10 ± 0.38
CTATTACAAAGAAATTGTACATATATATATAAAAAC [XGTACX_site8800] | 8.73 ± 0.35
AGCCACAATACGGAAACACACAAGTTATTTTATCAT [CACACA_site2724] | 8.46 ± 0.47

From the supplement of paper PMC11417369
